# This is one part of the list. Repeats are few or missing, and single values can be far off.
# Tested on: RPMI7951
# Test: cell count relative to DMSO control; melanoma cells; higher = more viable cells
# Conditions: library dose: low library concentration; 72 h
# 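Note: cell number obtained by counting DAPI-stained nuclei in high-throughput microscope images with image analysis software, screen run in 1,536-well plates.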
row,Structure (SMILES),cell count
1,"Cc1ccc(Nc2nccc(N(C)c3ccc4c(C)n(C)nc4c3)n2)cc1S(N)(=O)=O [Pazopanib] + Cn1nnc2c(C(N)=O)ncn2c1=O [temozolomide] (first compound 0.4 µM, partner dose 2 µM)",74.7%
2,"CC1(C)CCC(c2ccc(Cl)cc2)=C(CN2CCN(c3ccc(C(=O)NS(=O)(=O)c4ccc(N[C@H](CCN5CCOCC5)CSc5ccccc5)c(S(=O)(=O)C(F)(F)F)c4)cc3)CC2)C1 + COc1ccc(C2=N[C@@H](c3ccc(Cl)cc3)[C@@H](c3ccc(Cl)cc3)N2C(=O)N2CCNC(=O)C2)c(OC(C)C)c1 [Nutlin-3] (first compound 0.4 µM, partner dose 0.1 µM)",59.6%
3,"Cc1ccc(Nc2nccc(N(C)c3ccc4c(C)n(C)nc4c3)n2)cc1S(N)(=O)=O [Pazopanib] + CNC(=O)c1cc(Oc2ccc(NC(=O)Nc3ccc(Cl)c(C(F)(F)F)c3)cc2)ccn1 [sorafenib] (first compound 0.4 µM, partner dose 0.4 µM)",89.4%
4,"CC1(C)CCC(c2ccc(Cl)cc2)=C(CN2CCN(c3ccc(C(=O)NS(=O)(=O)c4ccc(N[C@H](CCN5CCOCC5)CSc5ccccc5)c(S(=O)(=O)C(F)(F)F)c4)cc3)CC2)C1 + C=CCNC1=C2C[C@@H](C)C[C@H](OC)[C@H](O)[C@@H](C)/C=C(\C)[C@H](OC(N)=O)[C@@H](OC)/C=C\C=C(/C)C(=O)NC(=CC1=O)C2=O [Tanespimycin] (first compound 0.4 µM, partner dose 0.002 µM)",58.8%
5,"O=C(/C=C/c1cccnc1)NCCCCC1CCN(C(=O)c2ccccc2)CC1 + NCC(=O)Nc1ccc(-n2nc(C(F)(F)F)cc2-c2ccc3c(ccc4ccccc43)c2)cc1 [OSU03012] (first compound 0.01 µM, partner dose 1 µM)",94.9%
6,"CC1(C)CCC(c2ccc(Cl)cc2)=C(CN2CCN(c3ccc(C(=O)NS(=O)(=O)c4ccc(N[C@H](CCN5CCOCC5)CSc5ccccc5)c(S(=O)(=O)C(F)(F)F)c4)cc3)CC2)C1 + CCCS(=O)(=O)Nc1ccc(F)c(C(=O)c2c[nH]c3ncc(Cl)cc23)c1F [PLX4720] (first compound 0.4 µM, partner dose 0.08 µM)",60.4%
7,"CC1(C)CCC(c2ccc(Cl)cc2)=C(CN2CCN(c3ccc(C(=O)NS(=O)(=O)c4ccc(N[C@H](CCN5CCOCC5)CSc5ccccc5)c(S(=O)(=O)C(F)(F)F)c4)cc3)CC2)C1 + Nc1cccc2c1CN(C1CCC(=O)NC1=O)C2=O [lenalidomide] (first compound 0.4 µM, partner dose 1 µM)",49.7%
8,"Cc1ccc(Nc2nccc(N(C)c3ccc4c(C)n(C)nc4c3)n2)cc1S(N)(=O)=O [Pazopanib] + C=CCn1c(=O)c2cnc(Nc3ccc(N4CCN(C)CC4)cc3)nc2n1-c1cccc(C(C)(C)O)n1 [MK1775] (first compound 0.4 µM, partner dose 0.02 µM)",92.7%
9,"O=C(/C=C/c1cccnc1)NCCCCC1CCN(C(=O)c2ccccc2)CC1 + Nc1nc(F)nc2c1ncn2[C@@H]1O[C@H](CO)[C@@H](O)[C@@H]1O [fludarabine] (first compound 0.01 µM, partner dose 0.2 µM)",107%
10,"CC1(C)CCC(c2ccc(Cl)cc2)=C(CN2CCN(c3ccc(C(=O)NS(=O)(=O)c4ccc(N[C@H](CCN5CCOCC5)CSc5ccccc5)c(S(=O)(=O)C(F)(F)F)c4)cc3)CC2)C1 + CS(=O)(=O)CCNCc1ccc(-c2ccc3ncnc(Nc4ccc(OCc5cccc(F)c5)c(Cl)c4)c3c2)o1 [lapatinib] (first compound 0.4 µM, partner dose 0.8 µM)",53.4%
11,"Cc1ccc(Nc2nccc(N(C)c3ccc4c(C)n(C)nc4c3)n2)cc1S(N)(=O)=O [Pazopanib] + Nc1cccc2c1CN(C1CCC(=O)NC1=O)C2=O [lenalidomide] (first compound 0.4 µM, partner dose 1 µM)",82.7%
12,"Cc1ccc(Nc2nccc(N(C)c3ccc4c(C)n(C)nc4c3)n2)cc1S(N)(=O)=O [Pazopanib] + COC(=O)c1sccc1S(=O)(=O)Nc1ccc(Nc2ccccc2)cc1OC [GSK0660] (first compound 0.4 µM, partner dose 1 µM)",92.4%
13,"O=C(/C=C/c1cccnc1)NCCCCC1CCN(C(=O)c2ccccc2)CC1 + CN1CCN(c2ccc3nc(-c4c(N)c5c(F)cccc5[nH]c4=O)[nH]c3c2)CC1 [Dovitinib] (first compound 0.01 µM, partner dose 0.1 µM)",110%
14,"CC1(C)CCC(c2ccc(Cl)cc2)=C(CN2CCN(c3ccc(C(=O)NS(=O)(=O)c4ccc(N[C@H](CCN5CCOCC5)CSc5ccccc5)c(S(=O)(=O)C(F)(F)F)c4)cc3)CC2)C1 + Cn1nnc2c(C(N)=O)ncn2c1=O [temozolomide] (first compound 0.4 µM, partner dose 2 µM)",49.5%
15,"O=C(/C=C/c1cccnc1)NCCCCC1CCN(C(=O)c2ccccc2)CC1 + Nc1cccc2c1CN(C1CCC(=O)NC1=O)C2=O [lenalidomide] (first compound 0.01 µM, partner dose 1 µM)",99.4%

# — the supplement of paper PMC4604168 (melanoma cell lines)
